# Changes are numbered by the printed parent chain. Results are given in words; binding and its absence hold for the method and conditions named. Binding seen in cells or lysates may run through a third protein. Some entries that bind do so weakly or less than the wild type. Where a sequence is shown, tags or fusion partners need not be part of it.
# Chains of the proteins cited; added tags and fusions are not shown.
# UniProt P49336: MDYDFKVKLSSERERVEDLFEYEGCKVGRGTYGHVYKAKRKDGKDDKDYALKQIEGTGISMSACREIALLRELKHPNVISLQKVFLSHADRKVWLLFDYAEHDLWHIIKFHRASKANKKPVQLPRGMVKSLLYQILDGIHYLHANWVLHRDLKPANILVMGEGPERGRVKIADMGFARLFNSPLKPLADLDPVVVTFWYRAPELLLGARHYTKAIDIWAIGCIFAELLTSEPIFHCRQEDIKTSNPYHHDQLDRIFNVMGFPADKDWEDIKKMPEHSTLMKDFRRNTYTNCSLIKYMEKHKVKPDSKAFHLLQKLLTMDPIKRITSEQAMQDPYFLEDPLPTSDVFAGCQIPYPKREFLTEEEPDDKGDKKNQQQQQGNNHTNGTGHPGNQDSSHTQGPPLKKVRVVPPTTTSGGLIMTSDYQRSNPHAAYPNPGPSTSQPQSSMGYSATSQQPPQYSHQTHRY
# UniProt Q7Z2Z1: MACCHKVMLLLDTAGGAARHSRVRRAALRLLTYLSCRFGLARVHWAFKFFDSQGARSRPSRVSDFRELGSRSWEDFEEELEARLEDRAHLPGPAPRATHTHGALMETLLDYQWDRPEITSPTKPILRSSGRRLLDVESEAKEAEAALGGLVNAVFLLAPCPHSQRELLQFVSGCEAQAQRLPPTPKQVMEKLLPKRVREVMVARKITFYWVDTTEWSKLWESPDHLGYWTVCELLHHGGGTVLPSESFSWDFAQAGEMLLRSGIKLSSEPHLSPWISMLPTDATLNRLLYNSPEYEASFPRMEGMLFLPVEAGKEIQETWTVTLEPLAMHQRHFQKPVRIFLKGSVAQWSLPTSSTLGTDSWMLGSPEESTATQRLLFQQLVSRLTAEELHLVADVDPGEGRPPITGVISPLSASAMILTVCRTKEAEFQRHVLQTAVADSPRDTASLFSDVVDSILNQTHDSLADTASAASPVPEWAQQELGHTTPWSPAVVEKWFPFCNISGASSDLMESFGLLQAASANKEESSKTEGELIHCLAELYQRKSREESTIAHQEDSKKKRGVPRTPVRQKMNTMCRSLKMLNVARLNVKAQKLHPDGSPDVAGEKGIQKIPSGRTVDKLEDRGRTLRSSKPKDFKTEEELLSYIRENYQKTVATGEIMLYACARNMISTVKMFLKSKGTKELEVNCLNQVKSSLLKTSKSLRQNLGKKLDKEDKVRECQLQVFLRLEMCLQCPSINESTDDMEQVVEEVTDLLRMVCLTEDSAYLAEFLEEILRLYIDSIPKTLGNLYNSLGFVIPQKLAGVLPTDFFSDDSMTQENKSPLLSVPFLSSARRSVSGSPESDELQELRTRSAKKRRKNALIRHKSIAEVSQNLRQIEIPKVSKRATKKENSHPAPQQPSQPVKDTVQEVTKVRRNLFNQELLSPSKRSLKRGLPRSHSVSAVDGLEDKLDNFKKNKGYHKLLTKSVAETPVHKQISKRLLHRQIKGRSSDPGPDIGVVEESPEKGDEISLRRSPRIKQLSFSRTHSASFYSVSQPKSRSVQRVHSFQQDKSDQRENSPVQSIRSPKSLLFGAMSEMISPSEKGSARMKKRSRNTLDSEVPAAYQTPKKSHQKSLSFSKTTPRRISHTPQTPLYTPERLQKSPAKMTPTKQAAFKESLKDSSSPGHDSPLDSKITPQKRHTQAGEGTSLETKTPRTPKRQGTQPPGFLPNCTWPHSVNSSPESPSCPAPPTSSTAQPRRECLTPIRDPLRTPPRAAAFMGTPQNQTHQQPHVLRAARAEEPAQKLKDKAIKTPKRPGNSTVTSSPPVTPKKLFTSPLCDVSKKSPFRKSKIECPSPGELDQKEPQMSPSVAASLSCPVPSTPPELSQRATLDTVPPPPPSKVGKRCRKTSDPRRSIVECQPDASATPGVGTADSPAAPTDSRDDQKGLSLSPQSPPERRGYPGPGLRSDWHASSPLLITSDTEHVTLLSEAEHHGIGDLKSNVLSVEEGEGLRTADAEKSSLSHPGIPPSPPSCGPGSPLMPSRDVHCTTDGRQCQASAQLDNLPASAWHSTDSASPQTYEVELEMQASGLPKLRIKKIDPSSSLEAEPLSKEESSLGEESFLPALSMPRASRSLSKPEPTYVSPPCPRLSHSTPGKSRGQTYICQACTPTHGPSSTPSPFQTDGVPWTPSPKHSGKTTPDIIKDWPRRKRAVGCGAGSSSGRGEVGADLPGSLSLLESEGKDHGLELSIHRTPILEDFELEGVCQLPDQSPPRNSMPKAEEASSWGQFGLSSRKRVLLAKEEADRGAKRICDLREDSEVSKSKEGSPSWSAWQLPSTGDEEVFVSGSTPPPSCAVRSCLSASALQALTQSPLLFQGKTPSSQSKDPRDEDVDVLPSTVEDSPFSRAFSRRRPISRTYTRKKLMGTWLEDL
# Key:
# [1] = biological target: T1, MTBP-WT-3×Flag-TEV2-GFP (HeLa Flip-In T-Rex stable line) (human) (UniProt Q96DY7); assay: co-IP; anti-GFP (GFP nanobodies, mock-coupled control beads) IP from native lysates of HeLa Flip-In T-Rex lines expressing MTBP-3×Flag-TEV2-GFP (WT or deletions); endogenous Treslin/TICRR and Cdk8 by immunoblot
# T1 sequence: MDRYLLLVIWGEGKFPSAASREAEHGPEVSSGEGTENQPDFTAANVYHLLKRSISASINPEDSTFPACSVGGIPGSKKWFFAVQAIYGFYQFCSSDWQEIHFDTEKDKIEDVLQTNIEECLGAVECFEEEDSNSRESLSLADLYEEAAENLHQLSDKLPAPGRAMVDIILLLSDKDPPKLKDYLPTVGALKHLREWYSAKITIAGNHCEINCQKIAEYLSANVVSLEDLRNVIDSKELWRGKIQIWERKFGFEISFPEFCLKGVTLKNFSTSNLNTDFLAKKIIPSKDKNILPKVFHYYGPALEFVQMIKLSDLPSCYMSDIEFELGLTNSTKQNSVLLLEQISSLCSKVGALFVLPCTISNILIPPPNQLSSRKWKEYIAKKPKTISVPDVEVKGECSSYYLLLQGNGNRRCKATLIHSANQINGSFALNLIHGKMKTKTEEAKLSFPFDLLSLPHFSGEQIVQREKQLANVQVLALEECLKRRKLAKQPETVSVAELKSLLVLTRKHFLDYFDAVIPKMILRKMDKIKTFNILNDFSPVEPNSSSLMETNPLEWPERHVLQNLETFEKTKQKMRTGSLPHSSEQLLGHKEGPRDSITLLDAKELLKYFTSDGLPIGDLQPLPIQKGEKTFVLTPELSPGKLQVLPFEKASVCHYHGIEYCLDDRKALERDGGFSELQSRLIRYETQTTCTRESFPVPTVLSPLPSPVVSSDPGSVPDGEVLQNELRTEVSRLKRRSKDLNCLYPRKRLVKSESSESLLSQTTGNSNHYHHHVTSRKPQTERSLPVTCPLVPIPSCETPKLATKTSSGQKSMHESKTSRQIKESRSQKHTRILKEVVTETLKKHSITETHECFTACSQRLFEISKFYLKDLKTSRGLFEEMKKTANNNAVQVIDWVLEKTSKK
# [2] = biological target: T2, MTBP L314D, C-terminally 3×Flag-tagged (293T) (human) (UniProt Q96DY7); assay: co-IP; 293T transiently transfected with C-terminally 3×Flag-tagged MTBP; anti-FLAG antibody on Protein G Dynabeads, lysis buffer 20 mM HEPES, 150 mM NaCl, 10% glycerol, 0.1% Triton X-100, 1 h at 4°C; endogenous Treslin/TICRR and Cdk8 by immunoblot
# T2 sequence: T1 sequence with L314D
# [3] = biological target: T3, MTBP-Δphyr2, C-terminally 3×Flag-tagged (293T) (human) (UniProt Q96DY7); assay: as above
# T3 sequence: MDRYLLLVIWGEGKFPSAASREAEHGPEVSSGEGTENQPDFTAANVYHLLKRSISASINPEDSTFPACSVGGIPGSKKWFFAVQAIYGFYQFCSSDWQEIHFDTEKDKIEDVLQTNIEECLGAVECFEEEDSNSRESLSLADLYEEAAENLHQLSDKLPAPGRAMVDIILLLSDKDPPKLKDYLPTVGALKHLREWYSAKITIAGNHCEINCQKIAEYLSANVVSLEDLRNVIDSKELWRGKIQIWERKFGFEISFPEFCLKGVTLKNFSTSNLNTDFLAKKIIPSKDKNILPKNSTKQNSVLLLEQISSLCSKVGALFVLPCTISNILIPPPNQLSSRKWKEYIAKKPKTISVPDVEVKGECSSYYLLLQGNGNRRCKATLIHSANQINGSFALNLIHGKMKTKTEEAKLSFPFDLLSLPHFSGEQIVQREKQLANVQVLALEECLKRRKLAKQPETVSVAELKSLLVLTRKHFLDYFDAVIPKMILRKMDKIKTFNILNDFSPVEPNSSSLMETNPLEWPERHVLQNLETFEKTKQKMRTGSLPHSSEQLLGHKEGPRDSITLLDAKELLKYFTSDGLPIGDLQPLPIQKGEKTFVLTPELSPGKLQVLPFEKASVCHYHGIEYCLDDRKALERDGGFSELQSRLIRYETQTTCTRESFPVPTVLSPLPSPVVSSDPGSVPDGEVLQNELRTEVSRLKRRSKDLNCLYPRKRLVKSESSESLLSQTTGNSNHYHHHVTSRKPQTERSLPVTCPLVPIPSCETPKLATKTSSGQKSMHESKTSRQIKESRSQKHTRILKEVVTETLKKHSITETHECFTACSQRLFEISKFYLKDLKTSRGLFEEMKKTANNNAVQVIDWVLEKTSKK
Substance,binding [1],binding [2],binding [3]
"Cdk8 (cyclin-dependent kinase 8), endogenous (from UniProt P49336 1-464) (enzyme)",binds,binds,binds
"Treslin/TICRR (TopBP1-interacting replication stimulating protein/TopBP1-interacting checkpoint and replication regulator), endogenous (from UniProt Q7Z2Z1 1-1910)",binds,no binding,no binding

# From paper PMC6377148
